Values joined by “and” are separate entries in the source; they are usually repeats but may differ in a detail not shown here. Equal values may be shown once. In all, about 16,000 compounds went through this assay and about 40 (0.2%) were called active. About 1% were inconclusive and are not listed. Calls follow the shape of the dose curve; as a rule, active = well fitted activation curve with a large enough effect; inconclusive = small, poorly fitted or top-dose-only effect, or another doubt; inactive = no such curve, though single readings can be large or run the other way. This is one part of the list.
Biological target: Rap guanine nucleotide exchange factor 4 (Homo sapiens) (UniProt Q8WZA2)
Assay: Validation qHTS for agonist of cAMP-regulated guanine nucleotide exchange factor 4 (EPAC2);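 also: exchange makes BODIPY-GDP fluorescence drop when released from Rap1B; series mostly up to about 150 µM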
Details: EPAC2 Rap1B BODIPY-GDP exchange, fluorescence; activation: hits give high values
Summary of the method: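 Signal normalized against 6.5 mM cAMP as agonist control. Mix of EPAC2 (100 nM), RAP1B-BODIPY-GDP (250 nM) and GDP (50 uM) was read kinetically at 480/540 nm, every 5 min over 30 min, after 5 min room-temperature incubation with compound.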
% is scaled to controls: 0 for no effect and ±100 for the full control effect.

Chain of UniProt Q8WZA2 (Q8WZA2 whole entry, looked up): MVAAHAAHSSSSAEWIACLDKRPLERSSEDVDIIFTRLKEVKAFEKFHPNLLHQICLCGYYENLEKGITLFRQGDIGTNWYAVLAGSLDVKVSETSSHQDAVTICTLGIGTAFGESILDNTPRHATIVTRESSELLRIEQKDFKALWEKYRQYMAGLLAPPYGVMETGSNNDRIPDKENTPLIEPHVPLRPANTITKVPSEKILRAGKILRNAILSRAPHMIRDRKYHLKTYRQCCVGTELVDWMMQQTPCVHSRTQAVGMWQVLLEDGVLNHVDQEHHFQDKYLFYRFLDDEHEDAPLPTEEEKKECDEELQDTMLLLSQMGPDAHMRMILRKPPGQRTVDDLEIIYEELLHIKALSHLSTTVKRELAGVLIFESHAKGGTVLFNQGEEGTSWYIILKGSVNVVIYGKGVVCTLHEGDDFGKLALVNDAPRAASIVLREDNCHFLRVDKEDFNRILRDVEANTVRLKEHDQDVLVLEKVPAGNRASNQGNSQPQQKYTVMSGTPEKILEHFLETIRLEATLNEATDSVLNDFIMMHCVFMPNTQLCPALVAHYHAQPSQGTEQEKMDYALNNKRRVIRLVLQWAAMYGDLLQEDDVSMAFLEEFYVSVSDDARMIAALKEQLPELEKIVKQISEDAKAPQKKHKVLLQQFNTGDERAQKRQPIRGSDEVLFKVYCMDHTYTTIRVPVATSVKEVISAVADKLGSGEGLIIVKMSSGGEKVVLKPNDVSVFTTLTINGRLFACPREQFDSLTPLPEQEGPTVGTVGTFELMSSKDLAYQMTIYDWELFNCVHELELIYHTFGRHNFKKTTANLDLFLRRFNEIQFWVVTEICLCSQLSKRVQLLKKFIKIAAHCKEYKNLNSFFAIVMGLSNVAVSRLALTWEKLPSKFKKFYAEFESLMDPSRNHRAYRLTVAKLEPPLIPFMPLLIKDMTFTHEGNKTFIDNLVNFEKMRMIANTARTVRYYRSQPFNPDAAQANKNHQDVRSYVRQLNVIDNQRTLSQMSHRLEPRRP

activation, inactive:
Cc1ccc2nc(SCC(=O)N3CCC4(CC3)CC4C(=O)Nc3ccc(F)c(F)c3)[nH]c2c1 (centres undefined) 4.21%
CCCCCCCC/C=C\CCCCCCCC(=O)OC[C@@H](O)COP(=O)(O)O 3.17%
COc1ccc(/C=C/C(=O)OCCC(C)C)cc1 -25.4%
O=C1CCN(Cc2ccccc2)CCN1[C@H](CSc1ccccc1)Cc1ccccc1 -15.6%
C=C1CC[C@H](O)CC1=C/C=C1\CCC[C@]2(C)[C@@H]([C@H](C)CCCC(C)(C)O)CC[C@@H]12 -2.49%
COCC(=O)N1CCC2(CCCN(c3ccc(-c4ccccc4)cc3)C2)CC1 4.08%
COc1ccc(-c2nc3cnc(N(C)C)nc3n(C)c2=O)cc1 -4.52%
CCn1c(-c2ccccc2F)nc2cc(C(=O)N3CCCC(CO)C3)cc(NC(C)=O)c21 (centres undefined) 7.68%
CC(=O)OC1C(=O)[C@@]2(C)C(O)CC3OC[C@]3(OC(C)=O)C2C(OC(=O)c2ccccc2)[C@]2(O)CC(OC(=O)C(O)C(NC(=O)c3ccccc3)c3ccccc3)C(C)=C1C2(C)C (some centres undefined) -4.64%
COc1c2ccccc2nc2occc12 -7.55%
O=c1[nH]c2ccccc2c2ccccc12 4.81% and -7.63%
C#CCN(C)Cc1ccccc1 -10.2% and -21.4%
Cc1c(C(=O)N2CCCC2)sc2ncnc(NCCN(C)C)c12 -10.6%
CCn1cc(C(=O)O)c(=O)c2ccc(C)nc21 6.23% and 7.27% and -19.2%
C=C(NC(=O)C(=C)NC(=O)c1csc(C2=N[C@@H]3c4csc(n4)[C@H]4NC(=O)c5csc(n5)[C@H]([C@](C)(O)[C@@H](C)O)NC(=O)[C@H]5CSC(=N5)C(=CC)NC(=O)C([C@@H](C)O)NC(=O)c5csc(n5)[C@]3(CC2)NC(=O)[C@H](C)NC(=O)C(=C)NC(=O)[C@H](C)NC(=O)C([C@@H](C)CC)NC2C=Cc3c([C@H](C)O)cc(nc3C2O)C(=O)O[C@@H]4C)n1)C(N)=O (some centres undefined) -36.6%
Cc1cc(C)cc(C(=O)N(C)[C@H](Cc2ccc(-c3ccccc3)cc2)C(=O)N[C@@H](Cc2c[nH]c3ccccc23)C(=O)O)c1 -21.4%
CC(=O)Nc1ccc(C(=O)N2CCCC(n3cc(C(=O)NCC(C)C)nn3)C2)cc1 (centres undefined) -2.55%
COC(=O)[C@]1(C)CCC[C@]2(C)c3ccc(C(C)C)cc3C(=O)CC12 (some centres undefined) -7.26%
CCCCCc1ccc(C)cc1O -46.1%
CCCCCC(C)N (centres undefined) 6.18%
CC(C)CN1CC2(CCN(C(=O)c3csnn3)CC2)C1 0.654%
COc1ccc2cc(CCC(C)=O)ccc2c1 4.51% and -29%
O=C(O)CCC(=O)OC[C@@H](NC(=O)C(Cl)Cl)[C@H](O)c1ccc([N+](=O)[O-])cc1 9.7%
Cc1cccc(/C=C/c2ccccc2)n1 -0.748% and -21%
C=C[C@H](N)CCC(=O)O -10.7%
Nc1ncnc2c1nc(Br)n2C1CC(O)C(CO)O1 (centres undefined) -4.78%
Nc1nc(SCc2ccc([N+](=O)[O-])cc2)c2ncn([C@@H]3O[C@H](CO)[C@@H](O)[C@H]3O)c2n1 -1.95%
COc1ccc(CCN2CCC(Nc3nc4ccccc4n3Cc3ccc(F)cc3)CC2)cc1 4.12% and -15.2%
CN(C)CCOC1=Cc2ccccc2Sc2ccc(Cl)cc21 -10.8%
CCN(Cc1ccncc1)C(=O)C(CO)c1ccccc1 (centres undefined) 0.574% and 1.24% and 0.103%
COc1ccccc1CN1CC2(CCN(C(=O)c3cc(C(F)(F)F)cc(C(F)(F)F)c3)CC2)C1 -21.1%
CS(=O)(=O)Nc1cccc(-c2ccc3ncnc(Nc4ccccc4)c3c2)c1 5.52%
N=C(N)c1ccccc1 -11.3%
COc1cccc(Cn2c(=O)c(-c3ccc(F)cc3)nc3cncnc32)c1 -0.492%
Cc1ccccc1-c1ccc2ncnc(NC3CC3)c2c1 -9.43%
COc1ccc(CNc2ncnc3ccc(-c4ccccc4CN(C)C)cc23)c(OC)c1 -12.6%
CN(C)Cc1ccccc1-c1ccc2ncnc(N3CCOCC3)c2c1 -16.3%
CCCCCCCCCCCCCCCCCCN(CCCCCCCCCCCCCCCCCC)c1ccc(/C=C/c2ccnc3ccccc23)cc1 -21.8%
CC(=O)NCCNc1nc(-c2ccccc2CN(C)C)nc2ccccc12 -19.9%
CCC(C)C(=O)OC1C2CC3=C4CC(=O)OC(c5ccoc5)[C@]4(C)CCC3[C@@](C)(C2=O)C(CC(=O)OC)C1(C)C (some centres undefined) -13.2%
O=C(NCCNCC(O)COc1ccc(O)cc1)N1CCOCC1 (centres undefined) -29.4%
COC(=O)[C@@H]1CCCN1Cc1ccc2c(c1)CN(Cc1cccn1-c1ncccn1)CCO2 -4.52%
Cc1nc2sccn2c1CN1CCC2(CC1)CC2C(=O)Nc1ccc2c(c1)OCO2 (centres undefined) -5.94%
CCN(CC)CCSC(=O)C(c1ccccc1)c1ccccc1 11.6% and -19.8%
Cn1c(=O)c(-c2ccc(Cl)cc2)nc2cnc(Oc3cccc(Cl)c3)nc21 5.61%
COc1ccc2ccccc2c1CN1CCc2nnc(C(NS(C)(=O)=O)C(C)C)n2CC1 (centres undefined) -23.7%
COc1cc(CN2CCC3(CCC(CNC(=O)c4cc(C)nn4C)O3)CC2)ccc1F (centres undefined) 2.25%
CC[C@@H](C)[C@H]1O[C@]2(CC[C@H]1C)C[C@@H]1C[C@@H](CC=C(C)[C@@H](O[C@H]3C[C@H](OC)[C@@H](O[C@H]4C[C@H](OC)[C@@H](O)[C@H](C)O4)[C@H](C)O3)[C@@H](C)C=CC=C3CO[C@@H]4[C@H](O)C(C)=C[C@@H](C(=O)O1)[C@]34O)O2 -73.6%
CNc1ncncc1-c1ccccc1C 0.301%
COCCn1c(=O)c(-c2ccccc2)nc2cnc(Oc3ccccc3)nc21 2.26%
OC(CCN1CCCCC1)(c1ccccc1)C1CC2C=CC1C2 (centres undefined) 1.75% and -9.32% and -17.9%
COc1cc(=O)n2c(c1C(=O)NC(C)c1ccco1)CCN(Cc1cc(C)ccc1C)CC2 (centres undefined) 3.03%
C[C@@]12C(=O)OC(=O)[C@]1(C)C1CCC2O1 11.2%
Cc1ncc([N+](=O)[O-])n1CCO -23.7%
CSCC[C@H](NC(=O)[C@H](Cc1ccccc1)NC[C@@H](NC[C@@H](N)CS)C(C)C)C(=O)O -4.71%
CCc1nc2cc(C(=O)N3CCC[C@H]3CO)cc(NC(=O)c3ccccc3OC)c2n1C 5.12%
COc1ccccc1CNc1nc(-c2ccccc2OC)nc2ccccc12 17%
CCN(CC)CC#CCOC(=O)C(O)(c1ccccc1)C1CCCCC1 (centres undefined) -15.8% and -27.5%
C=C(c1ccc2ccccc2n1)c1cccs1 -7.73%
COc1ccc(CN2CC[C@H]3C=CC[C@@H](C(=O)NC4CCCCC4)[C@H]3C2=O)cc1OC -7.22%
COCCNc1ncnc2ccc(-c3ccccc3C(F)(F)F)cc12 -24.1%
CN1C2CCCC1CC(NC(=O)c1nn(C)c3ccccc13)C2 (centres undefined) -8.81%
COc1cccc(NC(=O)/C=C\c2ccc(Cl)cc2)c1 -7.57%
C=C1C(=C/C=C2\CCC[C@]3(C)[C@@H]([C@H](C)CCCC(C)(C)O)CC[C@@H]23)C[C@@H](O)C[C@@H]1O -17.1%
C#C[C@@]1(O)CCC2C3CCC4=CC(=O)CCC4C3CC[C@@]21CC (some centres undefined) 9.43%
O=c1c(-c2cccs2)nc2cnc(Oc3ccccc3)nc2n1C1CC1 -12.7%
CN(Cc1ccco1)c1ccnc(-c2cccc(NS(C)(=O)=O)c2)n1 -12.3%
CCOC(=O)C1CCCCN1C(=O)c1cnn(-c2nccc(-c3cc(C)sc3C)n2)c1C1CC1 (centres undefined) -17%
COc1cccc(Cn2c(=O)c(-c3ccc(F)cc3)nc3cnc(N(C)C)nc32)c1 -3.02%
CC(C)NC[C@@H](O)COc1ccc(COCCOC(C)C)cc1 -11.8%
Nc1nc(O)c2ncn([C@H]3CC[C@@H](CO)O3)c2n1 -0.153%
COc1ccc2[nH]cc(CCNc3ncncc3-c3ccccc3OC)c2c1 9.15%
Cn1cccc1C(=O)N1CCC2(CC1)CN(c1cccc(-c3ccccc3)c1)C2 14.4%
COc1ccc(C(=O)N2CCC[C@@]3(CCN(c4ccccc4)C3)C2)cc1 -9%
COC(=O)c1cc(CNC(=O)c2cnsn2)cc(NC(=O)c2ccccc2OC)c1 3.07%
Cc1nc2cnc(OCc3ccccc3)nc2n(C)c1=O 4.87%
COc1ccc(CN2CCC(n3cc(C(=O)N4CCCC4)nn3)CC2)c(OC)c1C -4.41%
CC1CC2C3CCC4=CC(=O)C=C[C@]4(C)[C@@]3(Cl)C(O)C[C@]2(C)C1(OC(=O)c1ccco1)C(=O)CCl (some centres undefined) -23.1%
CCCCCc1ccc(-c2cn(CCc3c[nH]c4ccccc34)nn2)cc1 -19.3%

Reference: PubChem BioAssay AID1645887 (National Center for Advancing Translational Sciences (NCATS), 2021)
